Test results as given in PMC4336329 (PLoS ONE, 2015).
About 2,200 (0.71%) of roughly 310,000 compounds showed an effect of 50% or more. The effect is printed as a negative number. The list shows a part of the results.

target: human ether-à-go-go-related gene (hERG) potassium channel (human, UniProt Q12809); assay: primary screen, population patch clamp on CHO cells stably expressing hERG
Sequence (Q12809 whole entry, looked up): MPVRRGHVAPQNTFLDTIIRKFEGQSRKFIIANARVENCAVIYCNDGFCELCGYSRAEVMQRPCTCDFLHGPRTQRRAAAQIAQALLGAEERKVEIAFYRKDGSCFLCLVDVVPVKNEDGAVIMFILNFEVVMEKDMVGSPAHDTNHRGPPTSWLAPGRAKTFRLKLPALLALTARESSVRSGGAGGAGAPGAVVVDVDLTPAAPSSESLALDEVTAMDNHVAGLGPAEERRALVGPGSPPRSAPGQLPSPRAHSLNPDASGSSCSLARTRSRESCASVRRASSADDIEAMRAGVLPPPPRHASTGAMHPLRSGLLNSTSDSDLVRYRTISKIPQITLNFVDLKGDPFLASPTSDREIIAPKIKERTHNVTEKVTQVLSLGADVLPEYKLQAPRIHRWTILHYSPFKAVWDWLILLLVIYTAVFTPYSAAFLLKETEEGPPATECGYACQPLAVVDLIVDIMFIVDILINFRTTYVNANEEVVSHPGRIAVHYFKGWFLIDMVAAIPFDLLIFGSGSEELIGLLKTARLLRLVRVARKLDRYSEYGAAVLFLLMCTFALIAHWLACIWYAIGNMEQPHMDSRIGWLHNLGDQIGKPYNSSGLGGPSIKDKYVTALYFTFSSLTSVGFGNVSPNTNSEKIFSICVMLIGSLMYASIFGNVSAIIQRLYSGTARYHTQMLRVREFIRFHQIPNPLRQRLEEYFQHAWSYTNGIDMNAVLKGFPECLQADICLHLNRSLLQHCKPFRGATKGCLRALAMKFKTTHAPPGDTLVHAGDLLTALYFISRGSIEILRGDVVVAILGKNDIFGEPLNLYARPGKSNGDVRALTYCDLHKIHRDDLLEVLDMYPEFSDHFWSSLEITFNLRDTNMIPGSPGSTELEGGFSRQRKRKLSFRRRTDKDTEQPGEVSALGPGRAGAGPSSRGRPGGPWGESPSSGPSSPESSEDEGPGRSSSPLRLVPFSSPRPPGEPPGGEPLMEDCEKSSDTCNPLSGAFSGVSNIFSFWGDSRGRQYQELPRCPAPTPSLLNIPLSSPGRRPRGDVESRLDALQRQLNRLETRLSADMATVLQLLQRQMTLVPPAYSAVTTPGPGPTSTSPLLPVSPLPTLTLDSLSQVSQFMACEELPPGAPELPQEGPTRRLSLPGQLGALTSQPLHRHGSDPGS

First: CCn1cc(C2=NC(c3ccccc3)CO2)c2ccccc21 (stereo not shown)
Second: O=C(Nc1ccccc1)C1=C[C@H](c2coc3ccccc3c2=O)C[C@H](OCCCCO)O1
The “hERG current change (%, negative = inhibition) at 1uM” value of the first is higher: 12.1% for the first, -20% for the second.

Going from Cc1nc(-c2ccccn2)sc1C(=O)Nc1ccc(F)cc1 to CCc1ccc(NC(=O)c2sc3nc(C)nc(N4CCN(c5ccccn5)CC4)c3c2C)cc1, the “hERG current change (%, negative = inhibition) at 1uM” value falls from 11.5% to 10.4%.

Going from O=C(Nc1ccc(F)cc1)N1CCN2C(=O)c3ccccc3C12c1ccccc1 (stereo not shown) to O=C(Nc1ccccc1N1CCCCC1)c1ccc(N2C(=O)c3ccccc3C2=O)cc1, the “hERG current change (%, negative = inhibition) at 1uM” value rises from 8.35% to 9.37%.

Compared with CCNC(=O)O/N=C(\C)c1sc(-c2ccccc2)nc1C, Cc1nc2ccc(Cl)cc2c(-c2ccccc2)c1CC(=O)O is higher in “hERG current change (%, negative = inhibition) at 1uM” value: 5.69% for the first, 11.6% for the second.

Going from CC(C)(C)Nc1ncnc2sc(-c3ccccc3)cc12 to COc1ccc(-c2ncncc2-c2ccccc2)c(O)c1, the “hERG current change (%, negative = inhibition) at 1uM” value falls from 17.9% to 6.31%.

Compared with CCN1CCN(CCC(=O)Nc2ccc3c(c2)OCO3)CC1.Cl, O=S(=O)(c1cc(Cl)ccc1Cl)N1CCN(Cc2ccc3c(c2)OCO3)CC1 is lower in “hERG current change (%, negative = inhibition) at 1uM” value: 15.4% for the first, 11.7% for the second.

Going from CCc1nnc(NC(=O)c2ccc(-c3ccc(Cl)cc3)o2)s1 to CCOc1ccc(C(=O)Nc2cccc(-c3nc4cccnc4o3)c2)cc1Cl, the “hERG current change (%, negative = inhibition) at 1uM” value falls from 10.9% to -2.76%.

First: CCOc1ccc2nc(Cl)c(C3CC(c4ccccc4)=NN3C(=O)c3ccco3)cc2c1 (stereo not shown)
Second: CCn1cc([N+](=O)[O-])c(C(=O)N2N=C(c3ccc(OC)cc3OC)CC2c2ccccc2O)n1 (stereo not shown)
The “hERG current change (%, negative = inhibition) at 1uM” value of the first is lower: 1.85% for the first, 8.94% for the second.

Compared with CCOc1ccc(CCNS(=O)(=O)c2cc3c(cc2C)NC(=O)CO3)cc1OCC, CCOc1ccc(CC(=O)Nc2sc(Cc3ccccc3)cc2C(N)=O)cc1OCC is higher in “hERG current change (%, negative = inhibition) at 1uM” value: -1.2% for the first, 7.95% for the second.

Compared with Cc1cc(NC(=O)CCC(=O)N(Cc2ccco2)C2(C(=O)NC3CCCCC3)CCCC(C)C2)no1 (stereo not shown), O=C(CN1C(=O)NC2(CCCCCCC2)C1=O)NC(=O)NCc1ccco1 is lower in “hERG current change (%, negative = inhibition) at 1uM” value: 7.72% for the first, 6.48% for the second.

Compared with COc1ccc(CC(=O)NNC(=O)COc2ccc(Cl)cc2C)cc1S(=O)(=O)N1CCOCC1, COC(=O)c1cc(CNC(=O)c2ccc(N3CCCC3)c([N+](=O)[O-])c2)ccc1OC is lower in “hERG current change (%, negative = inhibition) at 1uM” value: 0.155% for the first, -6.96% for the second.

Compared with C/C(CC(=O)Nc1cccc2c1CCCC2)=N\NC=O, CCS(=O)(=O)Nc1cccc(C(=C2CCCCC2)c2cnc[nH]2)c1 is lower in “hERG current change (%, negative = inhibition) at 1uM” value: 17.5% for the first, -5.73% for the second.

Compared with COc1ccc(NC(=O)C(NC(C)=O)C(=O)NCc2ccccc2Cl)cc1 (stereo not shown), CSCCC(NC(N)=O)C(=O)NCc1ccccc1Cl (stereo not shown) is lower in “hERG current change (%, negative = inhibition) at 1uM” value: 6.79% for the first, 6.75% for the second.

Going from N/C(=N\S(=O)(=O)c1cc(C(F)(F)F)cc(C(F)(F)F)c1)c1ccccc1 to CNS(=O)(=O)c1cccc(C(=O)Nc2cccc(Cl)c2)c1, the “hERG current change (%, negative = inhibition) at 1uM” value falls from 14.4% to -2.9%.

Going from C=CCNC(=S)/N=C/c1c(O)[nH]c(=O)[nH]c1=O to C=CCn1c(-c2cccc(S(=O)(=O)N(CC)CC)c2)n[nH]c1=S, the “hERG current change (%, negative = inhibition) at 1uM” value rises from -13.5% to 5.04%.

Compared with c1cncc(-c2nnc3n2C2(CCCCC2)Cc2ccccc2-3)c1, COc1ccc(-c2nnc3sc(C(C)N4C(=O)c5ccccc5C4=O)nn23)cc1 (stereo not shown) is lower in “hERG current change (%, negative = inhibition) at 1uM” value: 8.2% for the first, 5.52% for the second.

Compared with CC(=O)c1cccc(NC(=O)N2CCCC2C(=O)Nc2ccc3c(c2)OCCO3)c1 (stereo not shown), O=C(CSc1nnc(-c2cccc(Cl)c2)o1)Nc1ccc2c(c1)OCCO2 is higher in “hERG current change (%, negative = inhibition) at 1uM” value: 3.96% for the first, 6.13% for the second.

Going from CCN(CC)S(=O)(=O)c1ccc(OC)c(NC(=O)C2CC(=O)N(c3ccc4c(c3)OCCO4)C2)c1 (stereo not shown) to O=C1CC(NS(=O)(=O)c2ccc([N+](=O)[O-])cc2)CN1c1ccc2c(c1)OCCO2 (stereo not shown), the “hERG current change (%, negative = inhibition) at 1uM” value rises from 4.74% to 7.66%.

Compared with CCOc1ccc(N2C(=O)Nc3ccc(Br)cc3C2(O)C(=O)NC(C)C)cc1 (stereo not shown), COc1ccc(NS(=O)(=O)c2cc(NC(=O)c3ccc(=O)[nH]n3)ccc2C)cc1 is higher in “hERG current change (%, negative = inhibition) at 1uM” value: 12.9% for the first, 14.6% for the second.

First: COC(=O)CCCC1=CC2=CC(=O)C(C)(OC(=O)c3cccs3)C(=O)C2=CN1Cc1ccccc1 (stereo not shown)
Second: O=C(c1cc(C(=O)NCc2ccccc2)c(=O)n(Cc2ccccc2)c1)c1cc(Cl)ccc1O
The “hERG current change (%, negative = inhibition) at 1uM” value of the first is lower: -11.3% for the first, 7.52% for the second.

First: CCN(CC)S(=O)(=O)c1ccc(Nc2nc3ccccc3n3nnnc23)cc1
Second: CN(C)S(=O)(=O)c1cccc(NC(=O)CSc2nnnn2-c2ccccc2)c1
The “hERG current change (%, negative = inhibition) at 1uM” value of the first is higher: 13.7% for the first, 6.26% for the second.

First: N#CC(c1nc2ccccc2nc1N1CCCC1)S(=O)(=O)c1cccs1 (stereo not shown)
Second: COc1ccc(NS(=O)(=O)c2ccc(C)c(C(=O)N3CCCCCCC3)c2)cc1
The “hERG current change (%, negative = inhibition) at 1uM” value of the first is higher: 16.6% for the first, -7.93% for the second.

Compared with Cc1ccc(CN2CCC(N3CCC(C(=O)NCC4CCCO4)CC3)CC2)o1 (stereo not shown), CCCn1c(=N)c(C(=O)NCC2CCCO2)cc2c(=O)n3cccc(C)c3nc21 (stereo not shown) is lower in “hERG current change (%, negative = inhibition) at 1uM” value: 5.54% for the first, -78.3% for the second.

Going from C=CCn1c2ccccc2c2nnc(SC(CC)C(=O)Nc3nc(C)c(C(=O)OCC)s3)nc21 (stereo not shown) to CCOC(=O)N1CCN(C(=O)Cc2cccc3ccccc23)CC1, the “hERG current change (%, negative = inhibition) at 1uM” value rises from -16.2% to 7.05%.

First: Cc1nn(C)c(C(=O)N/N=C/c2cccc3ccccc23)c1Cl
Second: Cc1cc(Cl)ccc1NC(=O)Nc1c(C)n(-c2ccccc2)c(=O)n1C
The “hERG current change (%, negative = inhibition) at 1uM” value of the first is higher: 2.16% for the first, -12.1% for the second.

Going from COC(=O)c1cc(NC(=O)CSc2nc(C)cc(=O)[nH]2)cc(C(=O)OC)c1 to Cc1cc(C)cc(-n2cc(C(=O)O)c(=O)cc2C)c1, the “hERG current change (%, negative = inhibition) at 1uM” value falls from 8.49% to -10.2%.

First: CC(=O)NCC(=O)OC(C)C(=O)Nc1ccc(C(C)=O)cc1 (stereo not shown)
Second: CCS(=O)(=O)c1ccc(O)c(NC(=O)Nc2ccc(C(C)(C)C)cc2)c1
The “hERG current change (%, negative = inhibition) at 1uM” value of the first is lower: -3.54% for the first, 16% for the second.

Compared with O=C(Nc1ccc2oc(-c3ccc4ccccc4c3)nc2c1)c1ccc2c(c1)OCCO2, O=C(Nc1ccc2oc(=O)ccc2c1)c1cccnc1 is lower in “hERG current change (%, negative = inhibition) at 1uM” value: 16.3% for the first, 1.01% for the second.

First: O=C(NCCc1ccc(Cl)cc1)C12CC3CC(CC(O)(C3)C1)C2
Second: Fc1ccccc1NC(=S)NCCc1cccc(Cl)c1
The “hERG current change (%, negative = inhibition) at 1uM” value of the first is higher: 14.1% for the first, 10.3% for the second.

First: CCN1CCN(S(=O)(=O)c2c(C)[nH]c(C)c2C(=O)N2CCCCC2)CC1
Second: CC1CCc2c(sc(NC(=O)CN3CCN(C(=O)c4ccco4)CC3)c2C#N)C1 (stereo not shown)
The “hERG current change (%, negative = inhibition) at 1uM” value of the first is higher: 21.7% for the first, -4.17% for the second.

Going from CCOc1cc2c(cc1OCC)-n1cccc1C(c1ccc(C)cc1C)NC2.Cl (stereo not shown) to COc1ccc(C(=O)N(Cc2ccco2)Cc2cc3cc(C)ccc3[nH]c2=O)cc1OC, the “hERG current change (%, negative = inhibition) at 1uM” value falls from 16.2% to 4.14%.

Going from Fc1ccc(-c2c[nH]c(=S)n2Cc2ccccc2)cc1 to CCn1c(COc2ccc(OC)cc2)nc2ccccc21, the “hERG current change (%, negative = inhibition) at 1uM” value falls from 4.75% to -12.1%.

Compared with O=C(Nc1nc2ccccc2s1)Nc1ccc(F)cc1F, CS(=O)(=O)c1ccc(Cl)c(NC(=O)CCCc2nc3ccccc3c(=O)[nH]2)c1 is lower in “hERG current change (%, negative = inhibition) at 1uM” value: 14.9% for the first, 9.83% for the second.

First: CCC/C(=N\NC(=O)C1CC1)c1ccccc1
Second: O=C(Cc1ccc(NC2=NC3CS(=O)(=O)CC3S2)cc1)NCc1ccccc1 (stereo not shown)
The “hERG current change (%, negative = inhibition) at 1uM” value of the first is lower: 2.55% for the first, 15.2% for the second.

Compared with Cc1ccc(-c2nc3ccccc3[nH]2)cc1NC(=S)NC(=O)c1ccccc1Br, Cc1ccc(-c2cc(C(F)F)n3ncc(C(=O)N4CCc5ccccc54)c3n2)cc1 is higher in “hERG current change (%, negative = inhibition) at 1uM” value: 8.3% for the first, 8.33% for the second.

First: CCOc1cc(NC(=S)NCc2ccco2)c(OCC)cc1NC(=O)CC(C)C
Second: O=C(NC1CCC(O)CC1)c1ccc(S(=O)(=O)NCc2ccco2)cc1 (stereo not shown)
The “hERG current change (%, negative = inhibition) at 1uM” value of the first is lower: 12.1% for the first, 21.3% for the second.

Compared with Cc1c(CCO)c(=O)n2c([nH]c3ccccc32)c1C#N, O=c1cc(O)c2ccccc2[nH]1 is higher in “hERG current change (%, negative = inhibition) at 1uM” value: 10.5% for the first, 14.8% for the second.

Going from Nc1ccc(C(=O)C(=O)c2ccc(N)cc2)cc1 to CC(C)c1ccc(NC(=O)C(c2ccccc2)N(C)C(=O)c2cnccn2)cc1 (stereo not shown), the “hERG current change (%, negative = inhibition) at 1uM” value falls from 12% to 6.31%.

First: CC1CCCCN1c1cc(C#N)c(C#N)cc1[N+](=O)[O-] (stereo not shown)
Second: COC(=O)C1CCN(C(=O)C(C)Oc2ccc(Cl)cc2Cl)CC1 (stereo not shown)
The “hERG current change (%, negative = inhibition) at 1uM” value of the first is lower: -2.62% for the first, 15.7% for the second.

First: C=CCSc1nc2c(c(=N)n1CC=C)C1CCCC1S2 (stereo not shown)
Second: O=C1c2ccccc2C(=O)N1Cc1nc2ccccc2c(=O)n1CCN1CCOCC1
The “hERG current change (%, negative = inhibition) at 1uM” value of the first is lower: 7.28% for the first, 8.13% for the second.

Compared with Cc1ccc2c(Cn3cc(C(F)(F)F)cc(Cl)c3=O)cc(=O)oc2c1, Cc1nc2c(ncn2-c2ccccc2)c(=O)n1NC(=O)CN1CCN(C)CC1 is higher in “hERG current change (%, negative = inhibition) at 1uM” value: 8.32% for the first, 14% for the second.

Compared with N#CC(C#N)=C(N)/C(C#N)=C\c1ccc(O)cc1, O=[N+]([O-])c1ccc(OCC(O)CNCCNc2nccc(C(F)(F)F)n2)cc1 (stereo not shown) is lower in “hERG current change (%, negative = inhibition) at 1uM” value: 11.6% for the first, -77.9% for the second.

With COc1ccc(CCc2nnc(CCC(=O)N(C)Cc3ccnc4ccccc34)o2)cc1 the “hERG current change (%, negative = inhibition) at 1uM” value was -2.44%.
